Results reported in PubChem BioAssay AID1508624 (National Center for Advancing Translational Sciences (NCATS), 2021).
The campaign covered roughly 48,000 compounds. About 120 (0.25%) were called active. Roughly 4% stayed inconclusive and do not appear here. The call rests on the fitted dose curve; in most records, active means well fitted activation curve with a large enough effect; inconclusive means small, poorly fitted or top-dose-only effect, or another doubt; inactive means no such curve, though single readings can be large or run the other way. This is one part of the list.

experiment: Primary qHTS for Identification of Small Molecule Activators of Huntingtin-Antisense Promoter Activity; details: HEK293 HTT-AS promoter firefly luciferase reporter, 24 h; series mostly up to 57.5 µM; activity change, positive = activation: at the top concentration; further: nearly all actives have a fitted effect of over 55% in size
How it was run: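 HEK293 Fluc reporter, 2,500 cells/well, 24 h pre-culture; cpds up to 57.5 uM final, 24 h 37 degrees C; Dual-Glo, 10 min RT; normalized vehicle = 0%, zero RLU = -100%.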

Activity change, positive = activation, inactive:
CNC(=O)COc1ccc(NC(=O)c2ccc(-c3nn(C)c(=O)c4ccccc34)cc2)cc1 -12.6%, CCn1c(SCc2ccccc2Cl)nc(=O)c2c(C(=O)OC)cc(C3CC3)nc21 -47.8%, Cc1cc(C)c2c(-n3cccc3)c(C(=O)NCCCN3CCCCC3C)sc2n1 (configuration not stated) -13.6%, O=C(O)[C@H](O)[C@@H](O)[C@H](O[C@@H]1O[C@H](CO)[C@H](O)[C@H](O)[C@H]1O)[C@H](O)CO -1.06%, COc1cc(-c2noc(-c3cc(C(C)C)[nH]n3)n2)cc(OC)c1OC -2.01%, Cc1nn(S(=O)(=O)c2ccc(Cl)cc2)c(C)c1S(=O)(=O)N1CCCCCC1 -8.5%, CCOC(=O)c1c(NC(=O)c2cc(=O)c3c(C)cc(C)cc3o2)sc(C(C)=O)c1C -1.84%, CC(=O)Nc1nonc1-c1nnc(SCc2ccc(Cl)cc2)n1C -26.5%, CCCOc1ccc(C(=O)Nc2cc(-c3nc4cc(C)cc(C)c4o3)ccc2C)cc1 -2.61% [at 11.5 µM, percent change from vehicle, -100% = no light], CN1C(=O)c2ccccc2Sc2ccc(NC(=O)N3CCN(c4ccccc4F)CC3)cc21 -16.2%, CC(C)NC(=O)C1CCN(C(=O)N2CCOc3ccc(Cl)cc32)CC1 -7.85%, Clc1ccc(CCNC(c2nnc(-c3ccccc3)o2)c2ccccc2Cl)cc1 (configuration not stated) -25.6%, Cc1ccc(-c2noc(-c3ccc(N4CCCCC4)c([N+](=O)[O-])c3)n2)cc1 -36.4%, Cc1cc(C)cc(OCC2CNC(=O)O2)c1 (configuration not stated) -6.87%, O=C(NCc1cccc(F)c1)C1CCN(C(=O)c2sccc2-n2cccc2)CC1 -18.7%, CCOc1ccccc1CNC(=O)c1ccc2nc(Cc3ccc(OC)cc3)oc2c1 -24.6%, O=C(Nc1cc(NC(=O)c2ccccc2Cl)ccc1Cl)c1ccccc1 20.2%, COc1ccc(CNC(=O)c2ccc(Cn3c(=O)c4cccn4c4cccnc43)cc2)cc1OC -11%, COc1ccc(N2CCN(C(=O)CCNS(=O)(=O)c3ccc4c(c3)CCN4C(=O)C3CC3)CC2)cc1 -36.3%, CCOCCCNC(=O)NC(CCC(C)C)c1c(-n2cccc2)sc2c1CCN(C)C2 (configuration not stated) -21.4%, CCc1ccc(NC(=O)CSc2cn(CC(=O)N3CCCC3)c3ccccc23)cc1 -21%, CN1CCN(CCCNC(=O)c2cnn(-c3ccccc3)c2-n2cccc2)CC1 -8.52%, Cc1ccc(OCC(=O)Nc2ccc(S(=O)(=O)Nc3ncccn3)cc2)c(C(C)(C)C)c1 11.5%, O=c1c2sc3ccccc3c2n(Cc2cccc(C(F)(F)F)c2)c(=O)n1Cc1ccco1 -20.1%, c1nc2nc(Nc3ccc(N4CCOCC4)cc3)nc(NC3CCCCC3)c2[nH]1 -26%, CC(C(O)c1ccccc1)N(C)CCOC(c1ccccc1)c1ccccc1 (configuration not stated) -25.6%, Cc1ccc(C)c(-c2nc(Cn3c(=O)cc(-c4ccccc4)c4c(C)nn(C)c43)c(C)o2)c1 -13.1%, CC(C)(C)C(=O)CSc1nc2ccsc2c(=O)n1Cc1ccccc1F -28.5%, Cc1cc(=O)c2cc(C(=O)Nc3ccccc3)ccc2[nH]1 1.46%, Cc1ccc2cccc(NC(=O)c3ccc(-c4ccc(Br)cc4)o3)c2n1 6.71%, CCc1ccc(-n2c(-c3ccccc3)c(C)n3c4c(=O)n(C)c(=O)n(C)c4nc23)cc1 -11.3%, COc1cccc(N2C(=O)N(CC(=O)NCc3cccc(OC)c3OC)c3ccccc3S2(=O)=O)c1 -20.2%, NS(=O)(=O)c1ccc(CCNC(=O)c2nc(SCc3ccccc3F)ncc2Cl)cc1 -24.2%, COc1cccc(C2C(C(=O)Nc3ccccc3OC)=C(C)Nc3nc4ccccc4n32)c1 (configuration not stated) -34.5%, CCc1ccccc1Nc1ncnc2c1nc1n2CCCC1 11.9%, COc1ccccc1N1CCN(C(=O)CCS(=O)(=O)c2cc(Br)cc3c2N(C(=O)C2CC2)CC3)CC1 -4.16%, CCOC(=O)c1c(C)oc2nc(C)nc(N3CCN(c4ccccc4)CC3)c12 -42.7%, CC(=O)O[C@H]1C[C@@H]2CC[C@@H]3[C@H](CC[C@@]4(C)[C@H]3C[C@H]([N+]3(C)CCCCC3)[C@@H]4OC(C)=O)[C@@]2(C)C[C@@H]1N1CCCCC1 -5.96%, O=C(Nc1ccc(F)cc1)c1cccn1-c1nnc(N2CCCCC2)s1 2.26%, COc1ccc2oc(=O)c(C(=O)NCCc3c(C)[nH]c4ccc(Br)cc34)cc2c1 -50.4%, O=C(CSc1nnc(CNC(=O)c2ccccc2)n1-c1cccc(Cl)c1)Nc1ccccc1F -8.51%, Cc1cn2c(=O)cc(COc3ccccc3NC(=O)c3ccccc3C)nc2s1 0.552%, CCN(Cc1ccccc1)Cc1c(O)ccc2c(=O)c(-c3ccccc3OC)c(C(F)(F)F)oc12 -19.3%, Cc1cccc(OCCSc2nc3ccccc3n2CC(=O)N2CCCCC2)c1C -31.4%, CC(=O)Nc1nonc1-c1nnc(SCC(=O)Nc2ccc(F)cc2F)n1-c1ccccc1 6.04%, Cc1c(C)n(Cc2ccccc2)c2ccc(C(=O)NC(C)c3ccccc3)cc12 (configuration not stated) -2.17%, Cc1ccc(Cn2c(CNS(=O)(=O)c3c(C)cc(C)cc3C)nc3cccnc32)cc1 -32.9%, CCOC(=O)N1CCN(S(=O)(=O)N2CCCC(C(=O)NCc3cc(OC)ccc3OC)C2)CC1 (configuration not stated) -22.8%, CCc1ccc(-n2c(SC(CC)C(=O)N(CC)CC)nc3n[nH]c(C)c3c2=N)cc1 (configuration not stated) -29.7%, COc1ccc(N2CC(NC(=O)/C=C\c3ccc(OC)c(OC)c3)CC2=O)cc1 (configuration not stated) -20.5%, Cc1nc(CC(=O)Nc2ccc(C)c(C)c2)cs1 12%, CCOCCCNC(=O)C1CCCN(Cc2nc(-c3ccc(CC)cc3)oc2C)C1 (configuration not stated) -25.7%, CCn1ccc2cc(S(=O)(=O)N3CCCN(C(=O)Nc4ccccc4OC)CC3)ccc21 -21.5%, CCc1ccc(OCC(=O)N(Cc2cccs2)c2ccc(Cl)cc2)cc1 -29.9%, Cc1cccc(NC(=O)C2CCCN(S(=O)(=O)c3cccc4nonc34)C2)c1C (configuration not stated) -16.2%, CCN1CCC(N(Cc2ccc3c(c2)OCO3)C(=O)Nc2cc(Cl)ccc2C(=O)OC)CC1 -24.1%, Cc1cccc(N2CCN(C(=O)c3cn(C4CCCCC4)c(=O)c4c3c3ccccc3n4C)CC2)c1C -13.7%, Cc1cc2oc(=O)c(CC(=O)NCCc3ccccc3)c(C)c2c2occ(C(C)(C)C)c12 -13.3%, CCCOC(=O)c1c(C)oc2c1cc(NS(=O)(=O)c1ccc(OCC)cc1)c1ccccc12 -45.7%, COc1ccc(-c2cn3c(n2)sc2cc(C(=O)NC4CCCc5ccccc54)ccc23)cc1 (configuration not stated) 27.5%, Cc1cc(C(=O)O)c2c(=O)n(C)c(=O)n(C)c2n1 -2.4%, CCN(C(=O)CCc1nc(-c2ccc(C)cc2)no1)c1cc(C)ccc1C -32.1%, CCCCN(C)CCCNC(=O)c1ccc2nc(N3CCCCC3)sc2c1 -28.6%, Cc1ccc(NC(=O)c2oc3ccccc3c2NC(=O)Cc2cccs2)cc1 22.5%, CCOc1ccccc1NC(=O)Nc1nnc(N(C)Cc2ccccc2)s1 18%, Cc1ccc(C(Nc2ccccn2)c2ccc3cccnc3c2O)cc1 (configuration not stated) -48.4%, COc1ccccc1NC(=O)CCS(=O)(=O)c1ccc2nc(C)sc2c1 -9.59%, COc1cc(Cl)c(NS(=O)(=O)c2ccc3c(c2)CC(C)N3C(=O)C2CCC2)c(OC)c1 (configuration not stated) -86.9%, COc1cc(Cl)c(C)cc1NC(=O)CCc1c(C)nc2cc(-c3cccc(F)c3)nn2c1C -58.7%, CCc1c(C)sc2c1CCN(C(=O)Nc1ccccc1C(F)(F)F)C2c1ccccc1 (configuration not stated) -48.7%, Cc1ccccc1NC(=O)c1c(NC(=O)C(C)Oc2cccc(Cl)c2)sc2c1CCCC2 (configuration not stated) -19.6%, O=C(CCn1cnc2onc(-c3ccc(F)cc3)c2c1=O)N1CCN(c2ccc(F)cc2)CC1 -26.1%, CCn1c(C(=O)N2CCCC(C(=O)NCCCOC)C2)cc2sccc21 (configuration not stated) -21.2%, COc1ccc(N2CCN(C(CNC(=O)CC(C)C)c3ccc4c(c3)OCO4)CC2)cc1 (configuration not stated) -11.3%, CCc1cccc(CC)c1NC(=O)Cn1nnc2sc(-c3ccccc3)cc2c1=O -10.9%, Cc1ccc(-c2nc3ccc(Cl)cn3c2Nc2ccc3c(c2)OCCO3)o1 17.1%, COc1ccc(-c2nc(CS(=O)CC(=O)NCc3ccc(F)cc3)c(C)o2)cc1OC (configuration not stated) -19.4%, CCCCOc1ccc(C2=NC(c3ccncc3)=Nc3ccc(Br)cc3N2)cc1 -6.42%, CCCCCC(=O)O[C@]1(C(C)=O)CC[C@H]2[C@@H]3CCC4=CC(=O)CC[C@]4(C)[C@H]3CC[C@@]21C -20%, CCOc1ccccc1N(CC)C(=O)Nc1cn(C)c(=O)c2ccccc12 -15.2%, COc1ccc(OCC(=O)Nc2ccc(C(=O)OCc3cc(=O)n4nc(C)sc4n3)cc2)cc1 -10.4%, Cc1c(Cl)cccc1-n1ncc(C(=O)N2CCc3ccccc3C2)c1C1CCN(C(=O)OC(C)(C)C)CC1 3.38%, Cc1ccc(/C=C/c2onc(C)c2S(=O)(=O)N2CCC(C(=O)N3CC(C)Oc4ccccc43)CC2)cc1 (configuration not stated) -14.9%, CCCCCn1c(=O)[nH]c2cc(C(=O)N3CCN(c4ccccc4)CC3)ccc2c1=O -7.05%, O=C(CSc1nc(-c2ccc(F)cc2)cc(C(F)(F)F)n1)NCc1ccccc1 -18.7%, COc1ccc(OCC(=O)NCC2(N3CCN(C)CC3)CCCCC2)cc1 -19.1%, CCCCNC(=O)CCC(=O)NNc1nc2ccccc2c2nc(-c3ccccc3)nn12 -3.96%, Cc1cccc(C(=O)Nc2c3c(nn2-c2ccc(Cl)cc2)CS(=O)(=O)C3)c1 -24.5%, CCOC(=O)c1ccc2c(c1)N(Cc1cccc(OC)c1)C(=O)c1ccccc1S2(=O)=O -25.1%, CCOC(=O)c1c(-c2ccccc2)oc2ccc(NS(=O)(=O)c3ccc(OC)cc3)cc12 -31%, CC(C)(C)OC(=O)N1CCC(c2c(C(=O)NC3CCN(Cc4ccccc4)CC3)cnn2-c2cccc(F)c2)CC1 -10.2%, COc1ccccc1CNC(=O)CC1N=C2c3ccccc3N=C(SCC(=O)Nc3ccc(F)cc3)N2C1=O (configuration not stated) -10.1%
